The list shows a part of the results. No stated cut-off is given here; in the data, active = 3.2 or more and inactive = the rest. The signal is at background level for most entries.
B1: GFAP_Y116_V115I (peptide)
chain: KLADIYQAELR
B2: GFAP_Y242_A244V (peptide)
chain: EIRTQYEVMAS
B3: GFAP_Y242_R239H (peptide)
chain: EIHTQYEAMAS
B4: GFPT1_Y367 (peptide)
chain: VNFDDYTVNLG
B5: GFPT1_Y367_D366Y_YF (peptide)
chain: VNFDFYTVNLG
B6: GIMAP6_Y176_G171S (peptide)
chain: SSLEDYVRETN
B7: GIT2_Y392 (peptide)
chain: NDQPDYDSVAS
B8: GJA1_Y247 (peptide)
chain: GKSDPYHATSG
B9: GJA1_Y247_S251T (peptide)
chain: GKSDPYHATTG
B10: GJA1_Y286 (peptide)
chain: MSPPGYKLVTG
B11: GJB3_Y16_G12R (peptide)
chain: SRVNKYSTAFG
B12: GLB1_Y154_L155R (peptide)
chain: SSDPDYRAAVD
B13: GLB1_Y485 (peptide)
chain: MGRVNYGAYIN
B14: GLB1_Y485_N484K_YF (peptide)
chain: MGRVKYGAFIN
B15: GLB1_Y485_R482H (peptide)
chain: MGHVNYGAYIN
B16: GLB1_Y485_R482H_YF (peptide)
chain: MGHVNYGAFIN
B17: GLB1_Y57 (peptide)
chain: SGSIHYSRVPR
B18: GLB1_Y57_R59C (peptide)
chain: SGSIHYSCVPR
B19: GLB1_Y57_R59H (peptide)
chain: SGSIHYSHVPR

biological target: SHP2 C-SH2 domain E139D; experiment: enrichment score (SH2-bound / input frequency) (ratio); bacterial display of known human phosphotyrosine sites (pTyr-Var adds point mutants) read by sequencing; higher = stronger binding; tyrosines were phosphorylated by kinases first; conditions: peptide library: pTyr-Var
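Further: displayed peptides selected on beads carrying the immobilized SH2 domain, with library peptides lacking any tyrosine serving as negative controls.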

Enrichment score, inactive:
B1 0.766, B2 0.717, B3 0.685, B4 0.849, B5 1.81, B6 0.629, B7 0.506, B8 0.467, B9 0.426, B10 0.983, B11 1.08, B12 0.47, B13 1.19, B14 2.19, B15 1.17, B16 0.835, B17 0.514, B18 0.624, B19 1.07

biological target: SHP2 C-SH2 domain wild-type; experiment: as above; conditions: peptide library: pTyr-Var

Enrichment score, inactive:
B1 0.886, B2 0.642, B3 0.787, B4 0.823, B5 1.71, B6 0.616, B7 0.472, B8 0.497, B9 0.572, B10 0.7, B11 1.02, B12 0.429, B13 1.06, B14 2.02, B15 1.07, B16 0.744, B17 0.409, B18 0.866, B19 1.27

biological target: SHP2 N-SH2 domain L43F; experiment: as above; conditions: peptide library: pTyr-Var

Enrichment score, inactive:
B1 0.918, B2 0.708, B3 0.429, B4 0.973, B5 1.67, B6 0.724, B7 0.419, B8 0.537, B9 0.41, B10 0.793, B11 0.893, B12 0.38, B13 0.993, B14 2.32, B15 1.07, B16 0.781, B17 0.386, B18 0.576, B19 1.11

biological target: SHP2 N-SH2 domain T42A; experiment: as above; conditions: peptide library: pTyr-Var

Enrichment score, inactive:
B1 0.73, B2 0.793, B3 0.533, B4 0.74, B5 1.98, B6 0.528, B7 0.349, B8 0.605, B9 0.467, B10 0.662, B11 0.943, B12 0.379, B13 1.36, B14 1.91, B15 1.47, B16 0.861, B17 0.365, B18 0.585, B19 0.986

biological target: SHP2 N-SH2 domain T52S; experiment: as above; conditions: peptide library: pTyr-Var

Enrichment score, inactive:
B1 1.04, B2 0.652, B3 0.7, B4 1.09, B5 1.87, B6 0.575, B7 0.476, B8 0.442, B9 0.41, B10 0.663, B11 0.978, B12 0.383, B13 1.19, B14 2, B15 0.999, B16 0.762, B17 0.411, B18 0.657, B19 1.04

biological target: SHP2 N-SH2 domain wild-type; experiment: as above; conditions: peptide library: pTyr-Var

Enrichment score, inactive:
B1 0.952, B2 0.828, B3 0.69, B4 1.16, B5 1.8, B6 0.732, B7 0.492, B8 0.501, B9 0.55, B10 0.759, B11 1.18, B12 0.473, B13 1.03, B14 2, B15 0.891, B16 0.841, B17 0.31, B18 1.07, B19 1.1
